This is an account of results in article PMC4336329 (PLoS ONE, 2015).

The whole screen tested about 310,000 compounds, of which about 2,200 (0.71%) showed an effect of 50% or more. The effect is printed as a negative number. This is one part of the list.

The target in this test is human ether-à-go-go-related gene (hERG) potassium channel (human, UniProt Q12809). Briefly: primary screen, population patch clamp on CHO cells stably expressing hERG.
Chain of human ether-à-go-go-related gene (hERG) potassium channel (Q12809 whole entry, looked up): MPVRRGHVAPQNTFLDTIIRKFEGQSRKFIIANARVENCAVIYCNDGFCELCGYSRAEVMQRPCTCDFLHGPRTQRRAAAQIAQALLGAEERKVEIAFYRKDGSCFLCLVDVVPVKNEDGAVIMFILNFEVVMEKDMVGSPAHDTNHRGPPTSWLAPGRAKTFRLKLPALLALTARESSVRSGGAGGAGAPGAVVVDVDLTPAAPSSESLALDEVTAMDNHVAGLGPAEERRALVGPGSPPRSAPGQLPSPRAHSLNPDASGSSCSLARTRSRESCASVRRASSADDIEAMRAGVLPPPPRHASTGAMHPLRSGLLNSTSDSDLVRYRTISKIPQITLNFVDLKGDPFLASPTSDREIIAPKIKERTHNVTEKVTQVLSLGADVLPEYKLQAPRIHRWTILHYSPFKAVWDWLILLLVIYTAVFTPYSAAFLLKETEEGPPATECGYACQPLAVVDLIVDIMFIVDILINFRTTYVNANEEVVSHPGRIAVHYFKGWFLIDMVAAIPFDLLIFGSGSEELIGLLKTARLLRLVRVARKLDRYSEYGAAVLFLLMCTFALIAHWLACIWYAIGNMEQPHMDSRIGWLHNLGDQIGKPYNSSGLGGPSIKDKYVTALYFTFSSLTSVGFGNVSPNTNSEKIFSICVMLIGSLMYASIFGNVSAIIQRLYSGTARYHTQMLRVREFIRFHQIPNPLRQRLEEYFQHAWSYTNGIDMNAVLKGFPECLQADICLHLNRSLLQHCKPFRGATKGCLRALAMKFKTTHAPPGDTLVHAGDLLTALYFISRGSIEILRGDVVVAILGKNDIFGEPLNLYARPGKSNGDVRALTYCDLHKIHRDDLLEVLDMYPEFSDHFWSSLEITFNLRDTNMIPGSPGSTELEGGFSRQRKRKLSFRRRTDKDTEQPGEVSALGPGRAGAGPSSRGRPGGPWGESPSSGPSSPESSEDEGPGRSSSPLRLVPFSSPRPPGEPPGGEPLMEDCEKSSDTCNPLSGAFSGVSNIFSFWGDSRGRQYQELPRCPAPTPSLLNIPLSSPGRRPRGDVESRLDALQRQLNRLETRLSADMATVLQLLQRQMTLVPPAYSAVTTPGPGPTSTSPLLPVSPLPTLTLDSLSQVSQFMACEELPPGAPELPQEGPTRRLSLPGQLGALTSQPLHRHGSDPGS
Consider `COc1ccccc1N1CCN(S(=O)(=O)c2ccc3c(c2)n(C)c(=O)n3C)CC1`, for which the “hERG current change (%, negative = inhibition) at 1uM” value is on record as -2.43%. The result for `CCC(c1nnnn1Cc1ccco1)N(CCc1ccccc1)Cc1cc2cccc(C)c2[nH]c1=O` (stereo not shown) reads 11.4%; that for `COc1ccc(Nc2ncc(C(=O)N3CCC4(CC3)OCCO4)c3ccccc23)cc1`, 10.6%; that for `Cc1ccc(C(=O)COC(=O)C2CC(=O)N(c3nc(-c4ccccc4)cs3)C2)cc1` (stereo not shown), 12.3%.

In the case of `Cc1ccccc1CC1(CO)CCCN(C(=O)c2ccccc2N(C)C)C1` (stereo not shown), the “hERG current change (%, negative = inhibition) at 1uM” value worked out at 10.9%.

As to `CCOc1ccc(Cc2nnc(SCC(=O)Nc3ccc(OC)cc3)n(N)c2=O)cc1`, the “hERG current change (%, negative = inhibition) at 1uM” value was 14.8%. As for `COc1ccc(OC)c(S(=O)(=O)N2CCN(C)CC2)c1`, the figure is -1.71%; as for `O=c1[nH]c(COc2ccc(Cl)cc2Br)nc2ccccc12`, 8.21%.

`O=C(O)CN1C(=O)/C(=C/c2ccccc2Cl)Oc2ccccc21`: the “hERG current change (%, negative = inhibition) at 1uM” value came out at 14%. On to `CCOC(=O)c1cn2cccnc2n1`, for which the “hERG current change (%, negative = inhibition) at 1uM” value worked out at 19.2%.

For `Cc1nc(CNC(=O)CC2C(=O)NCCN2Cc2ccc(F)cc2)cs1` (stereo not shown), the “hERG current change (%, negative = inhibition) at 1uM” value is listed as -0.332%.

Turning to `O=C(CC1NC(=O)NC1=O)Nc1ccccc1` (stereo not shown), the “hERG current change (%, negative = inhibition) at 1uM” value is on record as 0.887%. Consider `O=S(=O)(c1ccc2oc3ccc(S(=O)(=O)N4CCCCC4)cc3c2c1)N1CCCCC1`, for which the “hERG current change (%, negative = inhibition) at 1uM” value turned out to be 3.81%.

As to `COc1ccc(-c2noc(CCC(=O)Nc3cccnc3)n2)cc1OC`, the “hERG current change (%, negative = inhibition) at 1uM” value is reported as 0.221%. The result for `COc1ccc(NC(=O)c2cc(-c3ccccc3Cl)on2)cc1OC` reads 13.8%; that for `c1ccc2[nH]c(-c3cnco3)cc2c1`, 9.59%. Take `CCOC(=O)c1c(NC(=O)c2ccco2)sc(C(=O)N2CCCC2)c1C`: the “hERG current change (%, negative = inhibition) at 1uM” value was found to be 12.5%.

Regarding `CC(C)CC(=O)NCCc1ccncc1`, the “hERG current change (%, negative = inhibition) at 1uM” value is 8.96%. The result for `Cc1ccc(C2c3sc(=O)[nH]c3SC3C4CC(C5C(=O)N(C(C)C(=O)O)C(=O)C45)C23)cc1` (stereo not shown) reads 14%; that for `CC(NC(=O)c1ccccc1NC(=O)c1ccco1)c1ccccc1` (stereo not shown), 0.222%. Turning to `Cc1c(NC(=O)c2cccc(NC(=O)Cc3ccc(F)cc3)c2)c(=O)n(-c2ccccc2)n1C`, the “hERG current change (%, negative = inhibition) at 1uM” value was 11%. Regarding `CN(C)C(CNC(=O)c1coc2ccccc2c1=O)c1ccccc1` (stereo not shown), the “hERG current change (%, negative = inhibition) at 1uM” value amounted to 16.1%.

As for `Cc1cc(Cl)ccc1C1=CC(=O)C[C@H](c2ccc(F)cc2)C1`, the “hERG current change (%, negative = inhibition) at 1uM” value is given as 16.1%. As for `Cl.N=c1sccn1CC(=O)Nc1cc(Cl)ccc1Oc1ccccc1`, the figure is -44.9%. The result for `CCOc1ncccc1C(=O)OCc1c(F)cccc1Cl` reads 12.8%.

On to `Cc1onc(-c2ccccc2)c1C(=O)NCc1ccc(F)cc1`, for which the “hERG current change (%, negative = inhibition) at 1uM” value came to 6.13%. The result for `CCC(C(=O)NCc1ccc(C)o1)n1nc(C)c2c(C)n(-c3ccccc3)nc2c1=O` (stereo not shown) reads 13.9%. Take `Cc1cc(CN(C)C(=O)CCc2nnc(Cc3cccc(C(F)(F)F)c3)o2)on1`: the “hERG current change (%, negative = inhibition) at 1uM” value is recorded as 5.25%. Take `Cl.NCCc1ccc(S(=O)(=O)F)cc1`: the “hERG current change (%, negative = inhibition) at 1uM” value turned out to be 1.95%. As for `O=C(O)CCc1ccc(S(=O)(=O)Nc2ccccc2C(=O)NCCc2ccccc2)cc1`, the figure is 14.8%; as for `CN1CCN(c2nc(-c3ccccc3)nc(-c3ccccc3)c2C#N)CC1`, 13.9%; as for `O=C1Cc2cc(S(=O)(=O)Nc3ccccc3Cl)cc3c2N1CCC3`, 14.8%. In the case of `O=C(Nc1ccc(F)cc1F)N1CCN(c2ncccn2)CC1`, the “hERG current change (%, negative = inhibition) at 1uM” value was 1.83%. The result for `Cc1cc(NC(=O)c2ccc3c(c2)C(=O)N(Cc2ccccc2)C3=O)no1` reads 15.3%; that for `CN(C)c1ccc(C#Cc2ccc3cc(CCCO)oc(=O)c3c2)cc1`, 28.3%; that for `O=S(=O)(c1ccc(-c2ccno2)s1)N1CCCCC1`, 5.11%.

On to `Cc1nnsc1SCC(=O)O`, for which the “hERG current change (%, negative = inhibition) at 1uM” value is -3.05%. In the case of `COC(=O)c1cc(NC(=O)Nc2cc(OC)ccc2OC)cc(C(=O)OC)c1`, the “hERG current change (%, negative = inhibition) at 1uM” value amounted to 0.0433%. Take `O=C(O)CCCCCN1C(=O)/C(=C\c2ccncc2)SC1=S`: the “hERG current change (%, negative = inhibition) at 1uM” value worked out at 10.3%. As for `O=C(O)C(F)(F)C(NCc1ccccc1)c1ccccc1` (stereo not shown), the figure is 15.5%; as for `CCc1cccc(C)c1NC(=O)CC1Oc2ccc(C)cc2NC1=O` (stereo not shown), 11.9%. As for `COc1cccc(N2CC(C(=O)NC3CCCCC3)CC2=O)c1` (stereo not shown), the figure is 3.45%; as for `CC(C)C1=C2CCCCC2NC(=O)N1` (stereo not shown), 10.4%; as for `CCc1nnc(NC(=O)C2Cc3ccccc3CN2S(=O)(=O)c2c(C)c(C)cc(C)c2C)s1` (stereo not shown), 6.37%.

On to `CCCN(CC(=O)Nc1ccccc1C)C(=O)c1ccc(Cl)c(S(=O)(=O)N2CCCC2)c1`, for which the “hERG current change (%, negative = inhibition) at 1uM” value is on record as 13.8%. The result for `COc1ccc(C(O)(CCC(C)C)C(CN2CCOCC2)c2ccccc2)cc1.Cl` (stereo not shown) reads 13.2%; that for `CC1Oc2ccccc2N(CC(=O)N2CCc3ccccc32)C1=O` (stereo not shown), 0.878%. With `Cn1c(=O)n(C)c2cc(C(=O)Nc3ccc(Br)cc3)ccc21`, the “hERG current change (%, negative = inhibition) at 1uM” value is listed as 13.2%.

Regarding `COc1ccc(C(=O)c2ccc(OC)cc2O)c(O)c1`, the “hERG current change (%, negative = inhibition) at 1uM” value is given as 12.4%.

In the case of `O=C1c2cccc3c(N4CCOCC4)c([N+](=O)[O-])cc(c23)C(=O)N1c1cccc2ccccc12`, the “hERG current change (%, negative = inhibition) at 1uM” value is 12.7%. Regarding `Cc1ccc(SCC(=O)Nc2ccccc2C(=O)N2CCOCC2)cc1`, the “hERG current change (%, negative = inhibition) at 1uM” value was found to be 2.01%. As for `CN1C(=O)[C@H]2[C@@H](c3ccc(F)cc3)N3C(=O)c4ccccc4NC(=O)[C@@]3(C)[C@H]2C1=O`, the figure is -1.41%; as for `COCCCNS(=O)(=O)c1ccc2c3c(cccc13)C(=O)S2`, -5.43%; as for `CCOC(=O)N1CCC(NC(=O)C2CCN(C(=O)c3cc4oc(C)cc4n3Cc3c(F)cccc3Cl)CC2)CC1`, 7.04%. For `Cc1sc2nc(SCC(=O)NCCCO)n(-c3ccccc3)c(=O)c2c1C`, the “hERG current change (%, negative = inhibition) at 1uM” value turned out to be 10.7%. The result for `O=C(Nc1cccc(Cl)c1)c1ccc(F)c(S(=O)(=O)N2CCN(c3ccccn3)CC2)c1` reads 14.6%; that for `Cc1ccc(NC(=O)N2CCCc3ccccc32)cc1`, 0.512%; that for `COc1cccc(C(CNC(=O)C2CCN(C(=O)Nc3ccccc3)CC2)N(C)C)c1` (stereo not shown), 9.44%. `O=C1c2ccc([N+](=O)[O-])cc2S(=O)(=O)N1Cc1ccccc1`: the “hERG current change (%, negative = inhibition) at 1uM” value stood at 7.96%. Turning to `Cc1cccc(C(=O)NNC(=S)NC(=O)c2cccs2)c1`, the “hERG current change (%, negative = inhibition) at 1uM” value is listed as 13.3%.

For `Cc1cc(Oc2ccccc2)nc(N)n1`, the “hERG current change (%, negative = inhibition) at 1uM” value is 5.51%. Turning to `O=[N+]([O-])c1cnn(-c2nc(-c3cccs3)cc(C(F)(F)F)n2)c1`, the “hERG current change (%, negative = inhibition) at 1uM” value is given as -2.31%. Regarding `Cc1c(NC(=O)c2cccc(NC(=O)c3ccco3)c2)cccc1C(=O)O`, the “hERG current change (%, negative = inhibition) at 1uM” value came out at 13.4%. For the molecule `O=C(CCN1C(=O)/C(=C/c2ccccc2)SC1=S)Nc1ccccn1`, the “hERG current change (%, negative = inhibition) at 1uM” value was determined as 9.75%. Regarding `Cc1ccc(N2CC(C(=O)NCc3cccnc3)CC2=O)cc1` (stereo not shown), the “hERG current change (%, negative = inhibition) at 1uM” value was 3.68%. For `CC(NC(=O)CN(C)S(=O)(=O)c1ccc2c(c1)c(=O)n(C)c(=O)n2C)c1ccccc1` (stereo not shown), the “hERG current change (%, negative = inhibition) at 1uM” value is on record as -1.26%. As for `COc1ccccc1NC(=O)CSc1nnc(C)n1CCc1ccccc1`, the figure is 2.51%; as for `Cc1ccccc1N(CC(=O)NC(C)(C)C)C(=O)CS(=O)CC(=O)Nc1ccc2c(c1)OCO2` (stereo not shown), 14.7%. Regarding `CCOC(=O)Nc1cccnc1Sc1ccc(Cl)cc1`, the “hERG current change (%, negative = inhibition) at 1uM” value is 7.9%.

As for `NS(=O)(=O)c1cccc(NS(=O)(=O)c2ccc(/C=C/C(=O)OCC(=O)c3ccc(Br)cc3)cc2)c1`, the “hERG current change (%, negative = inhibition) at 1uM” value worked out at 13.5%. Consider `COc1ccc(CNc2cccc3[nH]c(C(F)(F)F)nc23)cc1.Cl`, for which the “hERG current change (%, negative = inhibition) at 1uM” value was 4.62%. Consider `CCN1C(N(C)C)=NC[C@@H]1Cc1ccccc1`, for which the “hERG current change (%, negative = inhibition) at 1uM” value was determined as 6.6%. The result for `COc1ccc(Nc2nc(C(=O)N3CCc4cc(OC)c(OC)cc4C3)cs2)cc1` reads 0.6%; that for `CC(C)=Cc1c(O)nc2ccccn2c1=O`, 12.1%. The result for `Cc1ccc(Sc2nc([N+](=O)[O-])nn2C)cc1` reads 11.2%; that for `O=C(N/N=C/c1ccc2cccnc2c1)c1ccco1`, 13.2%; that for `Cc1ccc2nc(N/N=C\c3ccc([N+](=O)[O-])o3)nc(-c3ccccc3)c2c1`, -35.4%. The result for `CC(NC(=O)Nc1ccccn1)N1C(=O)C2C3C=CC(C3)C2C1=O` (stereo not shown) reads 3.6%. Turning to `C/C(=N\OC(=O)c1ccc(F)cc1)c1nccs1`, the “hERG current change (%, negative = inhibition) at 1uM” value is 4.24%. As for `O=C(Nc1ccc(CN2CCCCC2)cc1)Nc1ccc(Br)cc1Cl`, the figure is 8.63%; as for `CCN1CCN(C(=O)C2CCCN(S(=O)(=O)c3ccc(OC)c(OC)c3)C2)CC1` (stereo not shown), 14.6%; as for `COc1ccc(/C=C/C(=O)NC(=S)NNC(=O)c2ccco2)cc1`, 7.53%. As for `O=C1c2ccc(Oc3ccc([N+](=O)[O-])cc3)cc2C(=O)N1c1ccncc1`, the figure is 6.69%. The result for `Cc1nc(Nc2ccccc2O)c2oc3ccccc3c2n1` reads 14.4%. For the molecule `COC(=O)c1ccc(NC(=O)CN2CCN(CC#N)CC2)cc1.O=C(O)C(=O)O`, the “hERG current change (%, negative = inhibition) at 1uM” value is given as 10.7%.

Take `Cc1ccc(C(=O)NCCc2cccc(Cl)c2)cc1[N+](=O)[O-]`: the “hERG current change (%, negative = inhibition) at 1uM” value is given as 5.44%. The result for `NC(=O)CSc1nc(-c2ccccc2)c(-c2ccccc2)o1` reads 8.48%. As for `CC(C)CC(COCc1ccc(Cl)cc1)N1CCN(C(=O)c2cccc(C(F)(F)F)c2)CCC1=O` (stereo not shown), the figure is 20.5%.
